Measured values published in the supplement of paper PMC4166925.
± gives the standard deviation of the averaged measurements. The full ranking holds about 33,000 sequences; the median of “E-score (dimensionless, -0.5 to 0.5)” is about -0.049, and the highest 2% start at about 0.37. The list shows a part of the results.

System: T1, PmTbr T-box DNA-binding domain (GST fusion)
T1 sequence: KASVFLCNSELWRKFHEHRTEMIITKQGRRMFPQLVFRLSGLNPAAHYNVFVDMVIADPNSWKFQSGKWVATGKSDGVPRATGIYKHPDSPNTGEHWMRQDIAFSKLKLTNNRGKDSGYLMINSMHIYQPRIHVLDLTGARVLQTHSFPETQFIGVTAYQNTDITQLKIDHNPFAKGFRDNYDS
Assay: PBM E-score of 8-mer (E-score (dimensionless, -0.5 to 0.5)); Tbr is Tbrain of the sea star Patiria miniata (Pm) or the sea urchin Strongylocentrotus purpuratus (Sp); higher = stronger binding preference; most listed sequences are background and not binding sites
Conditions: the construct has about 5 more residues each side
In short: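 Expression of GST-fused Tbr T-box DNA-binding domains, each holding the full T-box plus roughly five flanking residues, was carried out in BL21 E. coli at 20 °C, with purification by glutathione affinity chromatography. Universal Agilent arrays made double-stranded by primer extension were incubated with the protein at 200 nM in PBS (pH 7.5), then scanned and quantified. All ungapped 8-mers were scored from probe intensities, and each received an enrichment E-score from the Universal PBM Analysis Suite, averaged over duplicate arrays.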

**Q.** GCCAATGA was tested. Which “PBM E-score of 8-mer” value did it give?
**A.** 0.109 ± 0.018

**Q.** Which “PBM E-score of 8-mer” value does the source give for ACTAAAGA here?
**A.** -0.19 ± 0.064

**Q.** How did the “PBM E-score of 8-mer” value turn out when CAGTTTTA was run?
**A.** 0.0526 ± 0.075

**Q.** How did the “PBM E-score of 8-mer” value turn out when ACCCTAGA was run?
**A.** -0.0223 ± 0.011

**Q.** For CAGTCCAC, which “PBM E-score of 8-mer” value is on record?
**A.** 0.0964 ± 0.049

**Q.** Which “PBM E-score of 8-mer” value does the source give for CCAGGTAG here?
**A.** -0.0154 ± 0.0037

**Q.** For CTTCAAAG, which “PBM E-score of 8-mer” value is on record?
**A.** 0.0114 ± 0.059

**Q.** Which “PBM E-score of 8-mer” value does the source give for ATCAGGAT here?
**A.** -0.104 ± 0.035

**Q.** Which “PBM E-score of 8-mer” value does the source give for CAATTCGA here?
**A.** -0.0924 ± 0.0073

**Q.** With GCTTATCC as the sequence, how does the “PBM E-score of 8-mer” value read?
**A.** 0.0416 ± 0.018

**Q.** For ATGTACAG, which “PBM E-score of 8-mer” value is on record?
**A.** 0.0352 ± 0.067

**Q.** With CGACGTAG as the sequence, how does the “PBM E-score of 8-mer” value read?
**A.** -0.0817 ± 0.009

**Q.** With ATCCGGAT as the sequence, how does the “PBM E-score of 8-mer” value read?
**A.** -0.204 ± 0.095

**Q.** For AGAGATGC, which “PBM E-score of 8-mer” value is on record?
**A.** -0.133 ± 0.027

**Q.** How did the “PBM E-score of 8-mer” value turn out when ATGTCCAG was run?
**A.** -0.0643 ± 0.0044

**Q.** AGAATTTC was tested. Which “PBM E-score of 8-mer” value did it give?
**A.** 0.0646 ± 0.03

**Q.** With ATCCGGTA as the sequence, how does the “PBM E-score of 8-mer” value read?
**A.** -0.0515 ± 0.09

**Q.** Which “PBM E-score of 8-mer” value does the source give for ACAACCCT here?
**A.** 0.0544 ± 0.021

**Q.** With ATTTGAAA as the sequence, how does the “PBM E-score of 8-mer” value read?
**A.** -0.25 ± 0.036

**Q.** Which “PBM E-score of 8-mer” value does the source give for ACCGTACG here?
**A.** 0.155 ± 0.072

**Q.** For GGATCGAC, which “PBM E-score of 8-mer” value is on record?
**A.** -0.0264 ± 0.071

**Q.** How did the “PBM E-score of 8-mer” value turn out when CCAAAGGA was run?
**A.** -0.186 ± 0.024

**Q.** With ACATCAAA as the sequence, how does the “PBM E-score of 8-mer” value read?
**A.** 0.091 ± 0.013

**Q.** With AGAAGTCA as the sequence, how does the “PBM E-score of 8-mer” value read?
**A.** 0.0284 ± 0.021

**Q.** For ATACTGTC, which “PBM E-score of 8-mer” value is on record?
**A.** 0.0706 ± 0.013

**Q.** For AGGCGCGC, which “PBM E-score of 8-mer” value is on record?
**A.** 0.152 ± 0.021

**Q.** CTCCTGCA was tested. Which “PBM E-score of 8-mer” value did it give?
**A.** -0.0599 ± 0.014

**Q.** How did the “PBM E-score of 8-mer” value turn out when ATGTTTAA was run?
**A.** -0.0841 ± 0.085

**Q.** Which “PBM E-score of 8-mer” value does the source give for AGAGAACG here?
**A.** 0.12 ± 0.027

**Q.** With ACAAAGGG as the sequence, how does the “PBM E-score of 8-mer” value read?
**A.** -0.0602 ± 0.048

**Q.** CGGCTACG was tested. Which “PBM E-score of 8-mer” value did it give?
**A.** -0.00354 ± 0.0089

**Q.** With GAGTCTAA as the sequence, how does the “PBM E-score of 8-mer” value read?
**A.** -0.171 ± 0.031

**Q.** For CGACAGAA, which “PBM E-score of 8-mer” value is on record?
**A.** 0.0988 ± 0.053

**Q.** GGCACACA was tested. Which “PBM E-score of 8-mer” value did it give?
**A.** 0.17 ± 0.081

**Q.** CGTGTTAA was tested. Which “PBM E-score of 8-mer” value did it give?
**A.** 0.409 ± 0.029

**Q.** How did the “PBM E-score of 8-mer” value turn out when CATCCGAG was run?
**A.** -0.137 ± 0.0093

**Q.** CGTGCCAC was tested. Which “PBM E-score of 8-mer” value did it give?
**A.** 0.274 ± 0.03

**Q.** How did the “PBM E-score of 8-mer” value turn out when GCTTTCAA was run?
**A.** -0.149 ± 0.038

**Q.** How did the “PBM E-score of 8-mer” value turn out when ACAGGCTC was run?
**A.** 0.0148 ± 0.018

**Q.** With ATTGCTAG as the sequence, how does the “PBM E-score of 8-mer” value read?
**A.** 0.0494 ± 0.021

**Q.** How did the “PBM E-score of 8-mer” value turn out when GGAGCTCA was run?
**A.** -0.0734 ± 0.021

**Q.** How did the “PBM E-score of 8-mer” value turn out when GGGGTAAC was run?
**A.** -0.0702 ± 0.11

**Q.** CGGTTCAA was tested. Which “PBM E-score of 8-mer” value did it give?
**A.** -0.33825 ± 2.1e-05

**Q.** With AGCGTGGA as the sequence, how does the “PBM E-score of 8-mer” value read?
**A.** -0.0691 ± 0.051

**Q.** Which “PBM E-score of 8-mer” value does the source give for GCCAGGGA here?
**A.** -0.233 ± 0.004

**Q.** Which “PBM E-score of 8-mer” value does the source give for ATCACAAA here?
**A.** 0.0643 ± 0.013

**Q.** Which “PBM E-score of 8-mer” value does the source give for AGTCCTTA here?
**A.** -0.161 ± 0.024

**Q.** CCGTTAAA was tested. Which “PBM E-score of 8-mer” value did it give?
**A.** 0.148 ± 0.013

**Q.** For CTCAGAAC, which “PBM E-score of 8-mer” value is on record?
**A.** 0.00484 ± 0.039

**Q.** CACAGCCG was tested. Which “PBM E-score of 8-mer” value did it give?
**A.** -0.0675 ± 0.11

**Q.** For AACATCGA, which “PBM E-score of 8-mer” value is on record?
**A.** -0.0231 ± 0.048

**Q.** With CAAATCGA as the sequence, how does the “PBM E-score of 8-mer” value read?
**A.** -0.031 ± 0.074

**Q.** For ATACGTTC, which “PBM E-score of 8-mer” value is on record?
**A.** -0.177 ± 0.057

**Q.** With ACTCTATC as the sequence, how does the “PBM E-score of 8-mer” value read?
**A.** -0.0533 ± 0.053

**Q.** Which “PBM E-score of 8-mer” value does the source give for GGTGCTTA here?
**A.** 0.0849 ± 0.048

**Q.** GACGCCGC was tested. Which “PBM E-score of 8-mer” value did it give?
**A.** -0.00907 ± 0.019

**Q.** ACCCGGCA was tested. Which “PBM E-score of 8-mer” value did it give?
**A.** 0.102 ± 0.03

**Q.** Which “PBM E-score of 8-mer” value does the source give for CCGCAATA here?
**A.** -0.17 ± 0.032

**Q.** With CAACAAAG as the sequence, how does the “PBM E-score of 8-mer” value read?
**A.** 0.0162 ± 0.028

**Q.** For GATACGAA, which “PBM E-score of 8-mer” value is on record?
**A.** -0.139 ± 0.035

**Q.** How did the “PBM E-score of 8-mer” value turn out when ACAGTACG was run?
**A.** -0.1 ± 0.058

**Q.** For ATGCGCAT, which “PBM E-score of 8-mer” value is on record?
**A.** -0.0058 ± 0.033

**Q.** How did the “PBM E-score of 8-mer” value turn out when ATCGGGCG was run?
**A.** -0.0185 ± 0.02

**Q.** Which “PBM E-score of 8-mer” value does the source give for CGATGAGC here?
**A.** -0.174 ± 0.012

**Q.** How did the “PBM E-score of 8-mer” value turn out when AATAGTAC was run?
**A.** -0.0704 ± 0.049

**Q.** For CGTACGAG, which “PBM E-score of 8-mer” value is on record?
**A.** -0.098 ± 0.032

**Q.** CGTTTGAA was tested. Which “PBM E-score of 8-mer” value did it give?
**A.** -0.0782 ± 0.0035

**Q.** CTATGAAG was tested. Which “PBM E-score of 8-mer” value did it give?
**A.** -0.308 ± 0.038

**Q.** For AAGGTGGC, which “PBM E-score of 8-mer” value is on record?
**A.** 0.383 ± 0.021

**Q.** Which “PBM E-score of 8-mer” value does the source give for GCGTGAAC here?
**A.** 0.405 ± 0.021

**Q.** With GCTCTGTA as the sequence, how does the “PBM E-score of 8-mer” value read?
**A.** -0.194 ± 0.091

**Q.** Which “PBM E-score of 8-mer” value does the source give for AGTAAAAA here?
**A.** -0.24 ± 0.0046

**Q.** With CTACGCTC as the sequence, how does the “PBM E-score of 8-mer” value read?
**A.** -0.136 ± 0.019

**Q.** Which “PBM E-score of 8-mer” value does the source give for ATCTCCTC here?
**A.** -0.0533 ± 0.0073

**Q.** With AGTAGGGA as the sequence, how does the “PBM E-score of 8-mer” value read?
**A.** -0.263 ± 0.03

**Q.** For ACGGGGGG, which “PBM E-score of 8-mer” value is on record?
**A.** -0.0813 ± 0.018

**Q.** How did the “PBM E-score of 8-mer” value turn out when AATGAACC was run?
**A.** -0.089 ± 0.011

**Q.** ACCACCGT was tested. Which “PBM E-score of 8-mer” value did it give?
**A.** 0.159 ± 0.013

**Q.** Which “PBM E-score of 8-mer” value does the source give for AATATTCC here?
**A.** -0.128 ± 0.04

**Q.** With CCGAATGA as the sequence, how does the “PBM E-score of 8-mer” value read?
**A.** -0.178 ± 0.031

**Q.** For CGGCGCAC, which “PBM E-score of 8-mer” value is on record?
**A.** -0.00796 ± 0.085

**Q.** How did the “PBM E-score of 8-mer” value turn out when AGCCTCAC was run?
**A.** 0.0896 ± 0.045

**Q.** With GCGCCCCC as the sequence, how does the “PBM E-score of 8-mer” value read?
**A.** -0.0736 ± 0.063

**Q.** Which “PBM E-score of 8-mer” value does the source give for CCGTCGAG here?
**A.** -0.102 ± 0.072

**Q.** ATTTTGCG was tested. Which “PBM E-score of 8-mer” value did it give?
**A.** 0.1628 ± 0.0003

**Q.** Which “PBM E-score of 8-mer” value does the source give for AAATAATT here?
**A.** 0.0108 ± 0.052

**Q.** With AAGGGTTA as the sequence, how does the “PBM E-score of 8-mer” value read?
**A.** -0.066 ± 0.037

**Q.** Which “PBM E-score of 8-mer” value does the source give for AATATCGA here?
**A.** -0.0471 ± 0.064

**Q.** How did the “PBM E-score of 8-mer” value turn out when GTTAAGTA was run?
**A.** 0.105 ± 0.048

**Q.** How did the “PBM E-score of 8-mer” value turn out when CTCATATA was run?
**A.** -0.0937 ± 0.018

**Q.** Which “PBM E-score of 8-mer” value does the source give for CGCATCCC here?
**A.** -0.0665 ± 0.014

**Q.** For AAACTATT, which “PBM E-score of 8-mer” value is on record?
**A.** -0.168 ± 0.02

**Q.** How did the “PBM E-score of 8-mer” value turn out when GATCCGGC was run?
**A.** -0.0877 ± 0.02

**Q.** How did the “PBM E-score of 8-mer” value turn out when CACGGGAG was run?
**A.** -0.12 ± 0.028
